Results reported in patent publication US8551981B2, “Furo[3,2-d]pyrimidine compounds” (AbbVie Inc., priority 2010, dated 2013).

Molecular target: Syk catalytic domain (aa 356-635 with a C-terminal His-tag) (Homo sapiens, UniProt P43405)
Assay: In vitro Syk kinase activity by trFRET (Syk catalytic domain)
[1] = Syk IC50, Syk catalytic domain (aa 356-635), trFRET, 0.001 mM ATP
[2] = Syk catalytic domain (aa 356-635), trFRET, 0.001 mM ATP, read-out: Syk IC50

Row | IC50 [1] [nM] | IC50 (Syk IC50, class symbols A-D) [nM] | SMILES | further results
1 | < 100 |  | CC1(C)Cc2ccc(Nc3nc(NC4CCC4)c4occc4n3)cc2NC1=O [B.5.109] | 
2 | < 100 |  | CC1CC1Nc1nc(Nc2ccc3c(c2)NC(=O)C3(C)C)nc2ccoc12 (centres unmarked) [B.5.96] | 
3 | > 10000 |  | CC(=O)N1CCN(c2nc(Nc3ccc(S(N)(=O)=O)cc3)nc3ccoc23)CC1 [B.2.9] | 
4 |  | 100 to 1000 | C[C@@H]1CN(c2nc(Nc3ccc4c(c3)NC(=O)C(C)(C)O4)nc3ccoc23)C[C@@H]1CN [C.1.68] | 
5 | < 100 |  | Cc1cc2ccc(Nc3nc(NC4CC4)c4occc4n3)cc2[nH]c1=O [B.5.99] | 
6 |  |  | CC1(C)Oc2ccc(Nc3nc(N4CCCC(O)C4)c4occc4n3)cc2NC1=O (centres unmarked) [B.5.126] | IC50 [2]: 100 to 1000 nM
7 | 100 to 1000 |  | O=C1CCc2ccc(Nc3nc(OC4CCC4)c4occc4n3)cc2N1 [B.5.105] | 
8 | < 100 |  | Cc1n[nH]c2cc(Nc3nc(N4CCC(O)(CN)CC4)c4occc4n3)ccc12 [Example #AM.1, 4-(Aminomethyl)-1-(2-(3-methyl-1H-indazol-6-ylamino)furo[3,2-d]pyrimidin-yl)piperidin-4-ol] | 
9 | < 100 |  | CC1Cc2ccc(Nc3nc(NC4CCC4)c4occc4n3)cc2NC1=O (centres unmarked) [B.5.110] | 
10 | 100 to 1000 |  | O=C1COc2ccc(Nc3nc(NC4CC4)c4occc4n3)cc2N1 [B.5.7] | 
11 | 100 to 1000 |  | O=C1CCc2ccc(Nc3nc(NCC(F)F)c4occc4n3)cc2N1 [B.5.69] | 
12 | 100 to 1000 |  | O=c1[nH]c2cc(Nc3nc(NC4CC4)c4occc4n3)ccc2cc1CO [B.5.50] | 
13 |  | < 100 | CNCC1CCN(c2nc(Nc3ccc(C(C)(C)C#N)cc3)nc3ccoc23)CC1 [C.1.57] | 
14 | 100 to 1000 |  | Cn1c(=O)[nH]c2cc(Nc3nc(NC4CC4)c4occc4n3)ccc21 [B.5.26] | 
15 | 100 to 1000 |  | O=C1CCCc2ccc(Nc3nc(OC4CCC4)c4occc4n3)cc2N1 [B.5.104] | 
16 | 100 to 1000 |  | Cc1cc(Nc2nc(NC3CC3)c3occc3n2)ccc1OC(C)C [B.5.46] | 
17 |  | < 100 | CC1(C)Oc2ccc(Nc3nc(N4CCCC(N)CC4)c4occc4n3)cc2NC1=O (centres unmarked) [C.1.30] | 
18 |  | 100 to 1000 | Cc1n[nH]c2cc(Nc3nc(N4CCC(CCN)CC4)c4occc4n3)ccc12 [C.1.72] | 
19 |  | 100 to 1000 | CC1(C)Oc2ccc(Nc3nc(N4CC5(CCCNC5)C4)c4occc4n3)cc2NC1=O [C.1.75] | 
20 |  | 100 to 1000 | c1cc2nc(Nc3ccc4cn[nH]c4c3)nc(N3CCC(CNC4COC4)CC3)c2o1 [C.1.16] | 
21 | 100 to 1000 |  | CC1(C)C(=O)Nc2cc(Nc3nc(C#CC4CC4)c4occc4n3)ccc21 [B.5.71] | 
22 | 100 to 1000 |  | CC1(C)Sc2ccc(Nc3nc(N4CCC(CNCC(F)F)CC4)c4occc4n3)cc2NC1=O [B.5.95] | 
23 | 100 to 1000 |  | COCCCNC(=O)c1ccc(Nc2nc(NC3CC3)c3occc3n2)cc1 [B.5.9] | 
24 |  | 100 to 1000 | c1cc2nc(Nc3ccc(N4CCNCC4)cc3)nc(NC3CCC3)c2o1 [C.1.12] | 
25 | < 100 |  | CC1(C)C(=O)Nc2cc(Nc3nc(NCC(F)F)c4occc4n3)ccc21 [Example #16, 6-(4-(2,2-Difluoroethylamino)furo[3,2-d]pyrimidin-2-ylamino)-3,3-dimethylindolin-2-one] | 
26 |  | < 100 | Cn1ncc2cc(Nc3nc(N4CCC5(CCNC5)CC4)c4occc4n3)ccc21 [C.1.40] | 

Row | IC50 [1] [nM] | IC50 (Syk IC50, class symbols A-D) [nM] | SMILES | further results
27 | 100 to 1000 |  | CN1CCN(c2ccc(Nc3nc(NC4CC4)c4occc4n3)cc2F)CC1 [B.5.34] | 
28 | 100 to 1000 |  | Cn1ncc2cc(Nc3nc(N4CCC(CNCC(F)F)CC4)c4occc4n3)ccc21 [B.5.75] | 
29 |  | 100 to 1000 | CC1(C)Oc2ccc(Nc3nc(N4CCC5(CCCNC5)C4)c4occc4n3)cc2NC1=O (centres unmarked) [C.1.79] | 
30 | < 100 |  | FC(F)CNCC1CCN(c2nc(Nc3ccc(N4CCOCC4)c(Cl)c3)nc3ccoc23)CC1 [B.5.85] | 
31 |  | < 100 | CC(N)C1CCN(c2nc(Nc3ccc4c(c3)NC(=O)C(C)(C)O4)nc3ccoc23)CC1 (centres unmarked) [C.1.62] | 
32 |  | < 100 | CC1(C)C(=O)Nc2cc(Nc3nc(N4CCC5(CCCNC5)CC4)c4occc4n3)ccc21 [C.1.37] | 
33 |  |  | CC1(CO)CCN(c2nc(Nc3ccc4c(c3)NC(=O)C(C)(C)O4)nc3ccoc23)CC1 [B.5.122] | IC50 [2]: 100 to 1000 nM
34 |  |  | CC1(C)Oc2ccc(Nc3nc(NCCC(N)=O)c4occc4n3)cc2NC1=O [B.5.66] | IC50 [2]: 100 to 1000 nM
35 |  | < 100 | Cc1n[nH]c2cc(Nc3nc(N4CCC(CNCCS(C)(=O)=O)CC4)c4occc4n3)ccc12 [C.1.60] | 
36 |  |  | CNc1nc(Nc2ccc3c(c2)NC(=O)C(C)(C)O3)nc2ccoc12 [B.5.58] | IC50 [2]: 100 to 1000 nM
37 | 100 to 1000 |  | CCCC(=O)Nc1ccc(Nc2nc(Nc3ccc4cn[nH]c4c3)c3occc3n2)cc1 [J.1.1] | 
38 | < 100 |  | Cc1n[nH]c2cc(Nc3nc(N4CCc5nc[nH]c5C4)c4occc4n3)ccc12 [Example #AK.1, 4-(6,7-Dihydro-3H-imidazo[4,5-c]pyridin-5(4H)-yl)-N-(3-methyl-1H-indazol-6-yl)furo[3,2-d]pyrimidin-2-amine] | 
39 |  | < 100 | CC1(C)Oc2ccc(Nc3nc(N4CCC(CN)(CO)CC4)c4occc4n3)cc2NC1=O [C.1.69] | 
40 |  | < 100 | CC1(C)Oc2ccc(Nc3nc(N4CCC(O)(CN)CC4)c4occc4n3)cc2NC1=O [Example #AM.1.1] | 
41 | 100 to 1000 |  | O=S(=O)(Nc1ccccn1)c1ccc(Nc2nc(NC3CC3)c3occc3n2)cc1 [B.5.135] | 
42 |  | 100 to 1000 | CC1(C)Oc2ccc(Nc3nc(N4CCC5CNCC5C4)c4occc4n3)cc2NC1=O (centres unmarked) [C.1.35] | 
43 |  | 100 to 1000 | CC1(CN)CCN(c2nc(Nc3ccc4c(c3)NC(=O)C(C)(C)O4)nc3ccoc23)C1 (centres unmarked) [C.1.64] | 
44 | < 100 |  | CC1(C)C(=O)Nc2cc(Nc3nc(N4CCC(CNCC(F)F)CC4)c4occc4n3)ccc21 [B.5.60] | 
45 |  |  | CC1(CNCC(F)F)CCN(c2nc(Nc3ccc4c(c3)NC(=O)C(C)(C)O4)nc3ccoc23)CC1 [B.5.93] | IC50 [2]: 100 to 1000 nM
46 | < 100 |  | O=c1ccc2ccc(Nc3nc(NC4CC4)c4occc4n3)cc2[nH]1 [B.5.36] | 
47 | 100 to 1000 |  | CC(C)Oc1ccc(Nc2nc(NC3CC3)c3occc3n2)cc1F [B.5.48] | 
48 | < 100 |  | Cn1ncc2cc(Nc3nc(NC4CC4)c4occc4n3)ccc21 [B.5.8] | 
49 | < 100 |  | O=C1CCCc2ccc(Nc3nc(NC4CC4)c4occc4n3)cc2N1 [Example #8, 8-(4-(Cyclopropylamino)furo[3,2-d]pyrimidin-2-ylamino)-4,5-dihydro-1H-benzo[b]azepin-2(3H)-one] | 
50 |  | < 100 | c1cc2nc(Nc3ccc4cn[nH]c4c3)nc(NC3CCC3)c2o1 [C.1.3] | 
51 | 100 to 1000 |  | Cc1n[nH]c2cc(Nc3nc(NCC(F)F)c4occc4n3)ccc12 [B.5.100] | 
52 | < 100 |  | O=C1CCc2ccc(Nc3nc(NC4CCC4)c4occc4n3)cc2N1 [B.5.107] | 

Row | IC50 [1] [nM] | IC50 (Syk IC50, class symbols A-D) [nM] | SMILES | further results
53 |  | > 10000 | NC1CCN(c2nc(Nc3ccc(S(N)(=O)=O)cc3)nc3ccoc23)C1 (centres unmarked) [C.1.1] | 
54 | < 100 |  | CC1Cc2ccc(Nc3nc(NC4CC4)c4occc4n3)cc2NC1=O (centres unmarked) [Example #6, 7-(4-(Cyclopropylamino)furo[3,2-d]pyrimidin-2-ylamino)-3-methyl-3,4-dihydroquinolin-2(1H)-one] | 
55 | 100 to 1000 |  | CC(=O)N(C)c1ccc(Nc2nc(N3CCC(CNCC(F)F)CC3)c3occc3n2)cc1 [B.5.22] | 
56 | 100 to 1000 |  | NS(=O)(=O)c1cccc(Nc2nc(NC3CC3)c3occc3n2)c1 [B.5.24] | 
57 | < 100 |  | NC(=O)[C@H]1[C@@H](Nc2nc(Nc3ccc(S(N)(=O)=O)cc3)nc3ccoc23)[C@@H]2C=C[C@H]1C2 [B.2.10] | 
58 | 100 to 1000 |  | O=c1[nH]c2cc(Nc3nc(NC4CC4)c4occc4n3)ccc2o1 [B.5.25] | 
59 | > 10000 |  | NC(=O)[C@H]1CCCN1c1nc(Nc2ccc(S(N)(=O)=O)cc2)nc2ccoc12 [B.2.1] | 
60 | 100 to 1000 |  | CN1CCN(c2ccc(Nc3nc(NC4CC4)c4occc4n3)cc2Cl)CC1 [B.1, N^2-(3-Chloro-4-(4-methylpiperazin-1-yl)phenyl)-N^4-cyclopropylfuro[3,2-d]pyrimidine-2,4-diamine] | 
61 |  | < 100 | Cc1n[nH]c2cc(Nc3nc(N4CCC(C)(CN)CC4)c4occc4n3)ccc12 [C.1.31] | 
62 | 100 to 1000 |  | c1cn(-c2ccc(Nc3nc(NC4CC4)c4occc4n3)cc2)cn1 [B.5.121] | 
63 | 100 to 1000 |  | c1cc2ccc(Nc3nc(NC4CC4)c4occc4n3)cc2[nH]1 [J.1.3] | 
64 |  | < 100 | CNCC1CCN(c2nc(Nc3ccc4c(c3)NC(=O)C(C)(C)S4)nc3ccoc23)CC1 [C.1.71] | 
65 |  | < 100 | Cc1n[nH]c2cc(Nc3nc(N4CCC5(CCCNC5)CC4)c4occc4n3)ccc12 [Q.1.3] | 
66 |  |  | CC1(O)CCN(c2nc(Nc3ccc4c(c3)NC(=O)C(C)(C)O4)nc3ccoc23)CC1 [B.5.123] | IC50 [2]: 100 to 1000 nM
67 |  | < 100 | Cn1ncc2cc(Nc3nc(N4CCC5(CCCNC5)CC4)c4occc4n3)ccc21 [C.1.43] | 
68 | < 100 |  | CC1(C)C(=O)Nc2cc(Nc3nc(N4CCC(CNCCF)CC4)c4occc4n3)ccc21 [B.5.77] | 
69 |  | < 100 | NCCCCNc1nc(Nc2ccc3cn[nH]c3c2)nc2ccoc12 [Q.1.2] | 
70 | 100 to 1000 |  | O=S1(=O)Cc2ccc(Nc3nc(NC4CC4)c4occc4n3)cc2C1 [B.1.4] | 
71 | 1000 to 10000 |  | O=S1(=O)NCc2ccc(Nc3nc(NC4CC4)c4occc4n3)cc21 [B.1.7] | 
72 |  | 100 to 1000 | CC1(C)Oc2ccc(Nc3nc(N4CCC5(CCNCC5)CC4)c4occc4n3)cc2NC1=O [C.1.76] | 
73 |  | 100 to 1000 | NCC1CCN(c2nc(Nc3ccc4cn[nH]c4c3)nc3ccoc23)C1 (centres unmarked) [AG.1.1] | 
74 | < 100 |  | CC1(C)C(=O)Nc2cc(Nc3nc(N[C@@H]4[C@H](C(N)=O)[C@H]5C=C[C@@H]4C5)c4occc4n3)ccc21 [B.5.61] | 
75 | 100 to 1000 |  | O=C1CCc2cc(Nc3nc(NC4CC4)c4occc4n3)ccc2N1 [B.1.11] | 
76 |  |  | CC1(C)Oc2ccc(Nc3nc(NCC(F)F)c4occc4n3)cc2NC1=O [B.5.67] | IC50 [2]: 100 to 1000 nM
77 | < 100 |  | O=C1CCc2ccc(Nc3nc(NC4CC4)c4occc4n3)cc2N1 [Example #7, 7-(4-(Cyclopropylamino)furo[3,2-d]pyrimidin-2-ylamino)-3,4-dihydroquinolin-2(1H)-one] | 

Row | SMILES | IC50 [1] [nM] | IC50 (Syk IC50, class symbols A-D) [nM] | further results
78 | Cc1n[nH]c2cc(Nc3nc(N4CC[C@@H](CN)[C@H](O)C4)c4occc4n3)ccc12 [Example #9, (3S,4S)-4-(Aminomethyl)-1-(2-(3-methyl-1H-indazol-6-ylamino)furo[3,2-d]pyrimidin-4-yl)piperidin-3-ol] | < 100 |  | 
79 | COc1ccc(Nc2nc(NC3CC3)c3occc3n2)cc1 [B.5.131] | 100 to 1000 |  | 
80 | N#CCc1ccc(Nc2nc(NC3CC3)c3occc3n2)cc1 [B.5.134] | 100 to 1000 |  | 

Like-named read-outs stand apart in the source and are kept apart here.
